Some of the results follow. Repeats are few or missing, and single values can be far off.
System: LB2518-MEL
Assay: cell count relative to DMSO control; melanoma cells; higher = more viable cells
Conditions: library dose: standard library concentration; 72 h
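Further: cells treated in 1,536-well plates, then fixed and DAPI-stained, with nuclei counted from automated high-throughput microscope images.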

Question: `CC(C)(C)c1cnc(CSc2cnc(NC(=O)C3CCNCC3)s2)o1` + NCC(=O)Nc1ccc(-n2nc(C(F)(F)F)cc2-c2ccc3c(ccc4ccccc43)c2)cc1 [OSU03012] (first compound 0.05 µM, partner dose 5 µM) was tested. Which cell count did it give?
Answer: The cell count was 72.6%.

Question: For `CCCCCCCCc1ccc(CCC(N)(CO)CO)cc1` [fingolimod] + NC1(c2ccc(-c3nc4ccn5c(=O)[nH]nc5c4cc3-c3ccccc3)cc2)CCC1 [MK2206] (first compound 10 µM, partner dose 2 µM), which cell count is on record?
Answer: Its cell count is 0.324%.

Question: With `CC(C)(C)c1cnc(CSc2cnc(NC(=O)C3CCNCC3)s2)o1` + Oc1cc(-c2nc(-c3ccccc3)[nH]c2-c2ccncc2)ccc1Cl [L779450] (first compound 0.05 µM, partner dose 1 µM) as the compound, how does the cell count read?
Answer: Its cell count is 74.3%.

Question: How did the cell count turn out when `CCc1ccc(CCOc2ccc(CC3SC(=O)NC3=O)cc2)nc1` (centres undefined) [pioglitazone] + Oc1nc(-c2ccc(C(F)(F)F)cc2)nc2c1CSCC2 [XAV939] (first compound 10 µM, partner dose 10 µM) was run?
Answer: Its cell count is 93%.

Question: For `COc1cc2c(Oc3ccc4[nH]c(C)cc4c3F)ncnc2cc1OCCCN1CCCC1` [cediranib] + Cn1cc(/C=C2\C(=O)Nc3cccnc32)c2ccccc21 [GW441756] (first compound 2 µM, partner dose 2 µM), which cell count is on record?
Answer: Its cell count is 89.1%.

Question: How did the cell count turn out when `CCCCCCCCc1ccc(CCC(N)(CO)CO)cc1` [fingolimod] + Cn1cncc1[C@@](N)(c1ccc(Cl)cc1)c1ccc2c(c1)c(-c1cccc(Cl)c1)cc(=O)n2C [tipifarnib] (first compound 10 µM, partner dose 0.05 µM) was run?
Answer: The cell count was 0.189%.

Question: Which cell count does the source give for `CCc1ccc(CCOc2ccc(CC3SC(=O)NC3=O)cc2)nc1` (centres undefined) [pioglitazone] + Cc1cc([N+](=O)[O-])ccc1NS(=O)(=O)c1cc(Cl)ccc1Cl [FH535] (first compound 10 µM, partner dose 5 µM) here?
Answer: Its cell count is 84%.

Question: `CCCCCCCCc1ccc(CCC(N)(CO)CO)cc1` [fingolimod] + COCC[n+]1c2c(n(Cc3cnccn3)c1C)C(=O)c1ccccc1C2=O [YM155] (first compound 10 µM, partner dose 0.002 µM) was tested. Which cell count did it give?
Answer: Its cell count is 0.162%.

Question: For `NC(=O)c1ccc(N(C(N)=O)c2c(F)cccc2F)nc1-c1ccc(F)cc1F` + O=C1NC(=O)/C(=C/c2ccc(-c3ccc(F)cc3O)o2)S1 [AS252424] (first compound 2 µM, partner dose 5 µM), which cell count is on record?
Answer: The cell count was 82.3%.

Question: For `NC(=O)c1ccc(N(C(N)=O)c2c(F)cccc2F)nc1-c1ccc(F)cc1F` + Cc1nc(Nc2ncc(C(=O)Nc3c(C)cccc3Cl)s2)cc(N2CCN(CCO)CC2)n1 [dasatanib] (first compound 2 µM, partner dose 0.02 µM), which cell count is on record?
Answer: The cell count was 73%.

Question: With `CC(C)(C)c1cnc(CSc2cnc(NC(=O)C3CCNCC3)s2)o1` + COc1cc2c(Oc3ccc4[nH]c(C)cc4c3F)ncnc2cc1OCCCN1CCCC1 [cediranib] (first compound 0.05 µM, partner dose 2 µM) as the compound, how does the cell count read?
Answer: Its cell count is 88.9%.

Question: How did the cell count turn out when `Cc1ccc(NC(=O)c2cccc(N(C)C)c2)cc1NC(=O)c1ccc(O)cc1` + CO[C@@H]1[C@H](N(C)C(=O)c2ccccc2)C[C@H]2O[C@]1(C)n1c3ccccc3c3c4c(c5c6ccccc6n2c5c31)C(=O)NC4 [Midostaurin] (first compound 10 µM, partner dose 0.4 µM) was run?
Answer: The cell count was 49.8%.

Question: Which cell count does the source give for `CCCCCCCCc1ccc(CCC(N)(CO)CO)cc1` [fingolimod] + Oc1nc(-c2ccc(C(F)(F)F)cc2)nc2c1CSCC2 [XAV939] (first compound 10 µM, partner dose 10 µM) here?
Answer: Its cell count is 72.7%.

Question: Which cell count does the source give for `Cc1ccc(NC(=O)c2cccc(N(C)C)c2)cc1NC(=O)c1ccc(O)cc1` + CN(NC(=O)CC(=O)NN(C)C(=S)c1ccccc1)C(=S)c1ccccc1 [STA4783] (first compound 10 µM, partner dose 0.03 µM) here?
Answer: The cell count was 17%.

Source: the supplement of paper PMC4604168 (melanoma cell lines)
